Source: the supplement of paper PMC3334620
In all, about 33,000 sequences were measured (“E-score (-0.5 to 0.5)”: median about -0.016, highest 2% from about 0.31 on). The list shows a part of the results.

Target: Cst6 (UniProt P40535)
Experiment: PBM E-score (8-mer binding enrichment) (E-score (-0.5 to 0.5)); higher = stronger / more preferred TF binding; most listed sequences are background and not binding sites
Details: protein concentration: 200 nM; construct: GST-DNA-binding domain
Method: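 Universal 'all 10-mer' protein binding microarrays (Agilent AMADID 015681) probed with GST-tagged S. cerevisiae TFs (full-length or DBD) made by in vitro transcription/translation (PURExpress), about 100-200 nM. Bound TF was detected with fluorescent anti-GST. Each ungapped 8-mer (which stands for itself and its reverse complement) is scored by the PBM enrichment score (E-score), a modified Wilcoxon-Mann-Whitney statistic from -0.5 to +0.5, computed with the Universal PBM Analysis Suite. Scale: above 0.35 generally sequence-specific binding.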

Sequence | PBM E-score
CCAGCACA | -0.119
TAGGCTAA | -0.0771
GTAGTGAA | 0.0467
GAACAAAA | 0.186
TCTTTGAA | 0.0646
CACTATCA | 0.0489
ATTTCTAG | 0.168
ACCCAGGA | -0.249
CCCACATA | -0.18
CAGTTCAA | 0.125
AACCAAAA | 0.153
CGAGTCAC | -0.0823
CCGCGAGA | -0.218
GAGCGCAA | -0.272
TCGTATCA | 0.127
GCGGGTTA | -0.0629
ACAGGCGC | -0.11
AGCAGAAG | -0.17
GAAGGATA | -0.0411
AAATTATC | 0.308
CGTTTGAC | -0.00439
GACGTAAC | 0.46
GTGTAGGA | -0.188
AGATTGAC | 0.17
CGGAGTTC | 0.138

Sequence | PBM E-score
AATTGTGA | 0.255
AGTCCCAA | -0.202
CGATTCCA | -0.14
AACATTCC | -0.0303
AACCTTTG | -0.0624
GGCCGCCC | -0.203
GGTTAACC | -0.191
AAGCGTCA | 0.336
ATGAAACC | 0.0795
CGAGGTTC | 0.0365
AGGTTACC | 0.00222
AATCCTAC | -0.113
CATCAAGC | 0.0578
AGTCCAGC | -0.279
ATTCGGCA | 0.00283
AGTCTTAA | -0.116
CCATAACA | 0.176
ATTTCTAA | 0.0348
AGCGCGAC | -0.152
CCCAGAAC | -0.167
ATTGGGTC | 0.0483
ACCGCTCG | -0.0484
CTAGCTAA | 0.118
GTTGAGTA | 0.073
CAGCACGA | -0.173

Sequence | PBM E-score
GAACGGCA | 0.352
GCCGCTAC | -0.161
AGTATGTG | -0.0413
CACGTAAC | 0.262
GGGATTTA | 0.00892
AAGCTGTG | -0.00267
ATGAGCTA | 0.0815
ACCATCAT | 0.121
GTTAAATA | 0.17
TAAGTCTA | -0.216
GCACTGAA | 0.00783
ATCAGCTC | 0.0985
ATGTAGTA | 0.164
CGGCCCCC | -0.278
TGTTGAAA | 0.211
CTTTAGGA | -0.0677
CTAACCCA | 0.0583
TGTGAGAA | 0.0607
TCCACCCA | -0.0754
GAGAGTCA | 0.0642
ACGGGATC | -0.0861
TACGTGAA | 0.175
CTAAGGGA | -0.203
AGCGGTCC | -0.134
AATGCCTG | -0.165

Sequence | PBM E-score
CTACTCAG | -0.264
GCGGCCTA | -0.243
AACAAGAG | 0.00218
CATGCCAC | -0.0308
AAAATTAA | 0.115
CTTTCACA | 0.106
GCCCTTAA | -0.0936
GAAGGGTC | -0.209
AGCGGCGC | 0.107
CGACATCA | 0.411
GGGAGCCA | -0.239
AGATAGTA | 0.162
AGACATAT | 0.179
CACTCGTC | 0.143
GAACTACA | -0.0775
GTGATCCA | -0.1
AAAGCCGG | 0.0174
CCCGACGG | -0.119
ATAAGTTC | 0.00517
TATCGCCA | 0.104
CATCACAA | 0.239
TATCGACA | 0.106
ACAAGTCT | 0.0665
ACCGGAGT | -0.141
GGCTTTAC | 0.0405

Sequence | PBM E-score
AGGAGAAA | -0.144
CTCTATGA | 0.142
AAATTGCG | 0.11
AATAGACA | -0.00652
GACCACTA | -0.0607
GTGTACAA | 0.178
ATCAGTCA | 0.0916
ATGAACTC | 0.0354
CTCTTAGC | -0.0589
GAATAACA | 0.245
AGGTTTGG | -0.0956
ACAAGTCC | -0.145
ATCTAGAT | -0.0474
CAGTGCCA | -0.186
CTATGTAC | 0.00385
GAGACGGC | 0.196
CGGCACCA | 0.246
GATTAAGA | 0.155
GGATCAGA | -0.172
AATACCAA | 0.0926
AACTAATC | 0.0271
ATTACCAC | 0.123
AGGAAAAT | 0.0101
AATATATC | 0.252
GAAGCTTA | -0.0667

Sequence | PBM E-score
AACTGACA | 0.0859
GAACGGTC | -0.223
TCTTTTCA | 0.122
ACGCTCCC | -0.0891
AAGCCATA | -0.0493
TATCCGGA | -0.0526
CCACAACG | -0.0524
GCCGTAAA | 0.243
CCGGGGCG | -0.191
CAATCGTG | -0.0331
CATCCACG | 0.167
GCCATGCA | 0.0901
ATTCTTTA | 0.173
CAGAGCTG | -0.13
AATCAGAC | 0.067
CTGGGAAA | -0.0122
AGTCATAA | 0.217
GGAGAAAA | -0.00826
AGATGACA | 0.283
TCATCTAA | 0.259
AGATTGCG | -0.0616
GCGCGCTA | 0.00364
GTATCTCA | 0.23
CACCGTCA | 0.314
GGTCGAAC | -0.0955

Sequence | PBM E-score
AAGGTCGA | -0.0293
GGTAGTAA | -0.113
CAGTGGCC | -0.153
CCCCTTGC | -0.298
CAAATAGC | 0.128
CTCCTGTA | 0.0204
ACGACCGC | -0.276
CTTATAAA | 0.138
CGCAAACA | 0.151
TCAGAAGA | -0.0397
GTCTAGTA | 0.0466
ATGGCTGC | -0.0563
ACTAGTTA | -0.0795
ACGGAACG | 0.132
CCTAATAC | 0.0951
AACTTTAC | 0.098
ATGCACCA | 0.0534
AAGCGAAT | 0.149
CCGGTAGG | -0.201
GCTTCTCA | -0.176
CACTCGGC | -0.0198
AGTCTTTC | -0.164
AACTACTC | 0.0862
CCTCGGGA | -0.236
AGCTTCAT | -0.0493

Sequence | PBM E-score
CCATATCA | 0.13
CGACCCGC | -0.128
ACGCCTGG | 0.0268
GTTTTTTA | 0.213
CGGGCAAC | -0.256
GTACCACA | 0.109
CATAATAG | 0.202
CCGAGTCC | -0.225
AAGATGCA | 0.172
TAATTGAA | 0.156
AGACGAAA | 0.134
CCAGCGCC | -0.137
AATCCCAT | -0.0902
GATCCCGC | -0.175
CGAGATCG | -0.109
ATAAATGA | 0.274
CGCGTCCA | -0.124
GGATACCC | -0.266
CGCCTTTC | 0.118
GGAACGAC | -0.176
GACGAAGC | -2e-05
CATCCCCC | -0.346
CGTCCGAC | -0.102
ATATAGTA | 0.19
GCCGCGAA | -0.109

Sequence | PBM E-score
CTAATAGA | 0.127
ACAAGACC | -0.294
AAGTAGAA | 0.113
ACCAGGAG | -0.28
CGAAATAG | 0.0163
CTCGAAGC | 0.00149
TCTGCGCA | -0.136
CTCATAAG | -0.0254
AGAGGTAC | -0.262
AATTCCTC | 0.05
CCTATATC | 0.0351
GTCGTGGA | -0.0278
ACATGAGT | -0.0508
ACTTGAGC | -0.224
GATTTTAC | 0.133
ATAACCCC | -0.224
CAGTACTA | -0.0344
CCGTGTAC | 0.13
ATCGGGGC | -0.337
ACCAAGGA | -0.0786
AATAGACT | 0.0159
ACTCTCCC | -0.245
ATCGCACG | 0.00811
GAGCGATC | -0.228
TCGGCAAA | 0.00923

Sequence | PBM E-score
AAGCGCGA | -0.0328
GACATAGC | 0.112
CTTCCATC | -0.0839
GATCTTGC | 0.0284
CGACCAGA | -0.109
ATCAGTTG | 0.133
GTCGTTAA | -0.0432
CCCAAAAC | 0.105
AGCCCCTC | -0.278
CATTATGA | 0.272
CACTAGTG | -0.128
CGCACTAC | -0.0555
CCAGCTTC | -0.0983
CCCCTACG | -0.298
CACGGTAG | -0.0968
ACCACTTG | -0.163
CAAGGATA | -0.023
CTGAATAA | 0.232
TAATTATA | 0.299
GGCGAAGA | -0.191
AGACGGGG | -0.288
TCCGATAA | -0.208
AGTGGATA | -0.00533
GAGTATGA | 0.169
ACTATTGA | 0.202

Sequence | PBM E-score
CGGGGGAG | -0.276
TGCACTAA | 0.135
AGCACATC | -0.0663
AGATTCGG | 0.0352
GACGGATA | 0.135
ATCGCTTA | -0.0261
AGTTTCCA | -0.0185
ATTGCTGG | -0.0529
ACGTCTTG | 0.0585
TATCCACA | -0.142
CTATGGAC | -0.0325
CGTAGCTA | -0.0668
AATAATCC | 0.0992
GTACCTAA | 0.00811
ACCCGCCC | 0.103
AACTCTGG | -0.144
CTGGCTAC | -0.133
CGGGCTGC | -0.265
GATTTATA | 0.25
AACCCTGC | -0.187
CACATATG | 0.15
ACAATCCT | 0.0365
ATGTGTCA | 0.286
CAGTCATG | -0.183
CAATACTA | -0.00609

Sequence | PBM E-score
CTTAGAAG | -0.174
AACGACTT | -0.128
GACTCCTA | -0.203
AGCGTATG | -0.191
AGCATCGC | -0.273
AAACGTTG | -0.106
CCCGGGTA | -0.191
CATTCTAC | 0.163
ACGTCGTG | 0.137
CCCCACAG | -0.131
GATCTACC | -0.181
GTTCCTCA | -0.00147
AGCAATAG | 0.0162
AACATACA | 0.129
CGGCTTAA | 0.126
ACCGTGCG | 0.101
GTAGGCAA | -0.0121
AGAGGCTA | -0.205
CGTGCGCC | 0.0377
ATGTGCGA | -0.112
GCGGATAC | 0.048
ATTGGTCC | -0.00831
CACCAAGA | 0.121
ATGGCGGA | -0.262
AACGTTGG | 0.0202

Sequence | PBM E-score
AGGAGACT | -0.207
CACGCTCA | 0.0759
AGTGGCAA | 0.0959
ATAAGTCG | -0.0527
AACCCTCC | -0.241
GGGTAGGA | -0.312
CTAAAGGA | -0.00812
CCGAACGG | 0.0219
CTCCACAA | 0.119
GCCCAAAA | 0.0256
ATTTTTTG | 0.202
GCAAGCGA | 0.0543
CGACAACC | -0.125
AACCAAGA | 0.106
AAGGGATA | 0.0654
CAGCTCGC | -0.143
AGTTGAAT | 0.182
AAAGAGCT | -0.196
TCCACCAA | -0.117
AATTTCTC | 0.151
ATGGACTG | -0.116
CTGAAAGC | 0.0438
AGCTATAG | -0.299
CGACTACA | 0.0376
AGCAAAGA | 0.0178

Sequence | PBM E-score
GGGGGTAC | -0.307
GAAATTTC | -0.162
AGGACCGC | -0.0202
GAGTACTA | 0.0861
ATCTGCGA | -0.23
CCCGATCG | -0.0185
ATGGAGTC | -0.0353
GAACTGCC | -0.222
GACCGATA | 0.0222
CGGTGGAA | -0.107
GAAGATAA | 0.136
CAAGTCAG | -0.131
AACTTAAG | 0.0673
AGGGAAAG | -0.204
ACGCAACT | 0.133
CTTGGATC | -0.119
AGACGACT | -0.34
GGATATCC | -0.0791
GAATATCC | 0.0188
